Results are given in words; binding and its absence hold for the method and conditions named. For some of these results: Binding seen in cells or lysates may run through a third protein. Some entries that bind do so weakly or less than the wild type. Where a sequence is shown, tags or fusion partners need not be part of it. Each block holds one binder with its values, some of them ahead of it.
What was measured:
[1] = biological target: T1, LFRΔC2 (1-310 amino acids) fused with BD (Arabidopsis thaliana) (UniProt Q9LS90); test: two-hybrid; directed test in yeast AH109; bait pGBKT7, prey pGADT7; growth on SD/-L-W-A-H; liquid β-galactosidase assay with ONPG
T1 sequence: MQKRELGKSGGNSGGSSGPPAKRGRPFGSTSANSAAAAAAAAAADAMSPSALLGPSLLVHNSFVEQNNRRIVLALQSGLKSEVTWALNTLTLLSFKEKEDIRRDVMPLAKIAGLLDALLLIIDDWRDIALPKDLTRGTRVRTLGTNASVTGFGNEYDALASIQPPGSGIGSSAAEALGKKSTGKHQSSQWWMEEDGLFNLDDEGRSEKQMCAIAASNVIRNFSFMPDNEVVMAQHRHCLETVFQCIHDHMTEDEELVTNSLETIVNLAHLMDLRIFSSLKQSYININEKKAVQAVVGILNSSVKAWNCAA

[2] = substrate: T2, C terminal part of CFP-LFR (Arabidopsis thaliana) (UniProt Q9LS90); test: split reporter; BiFC (cCFP/nYFP) in epidermal cells of N. benthamiana leaves, Agrobacterium GV3101 co-infiltration, about 48 h, confocal microscopy
T2 sequence: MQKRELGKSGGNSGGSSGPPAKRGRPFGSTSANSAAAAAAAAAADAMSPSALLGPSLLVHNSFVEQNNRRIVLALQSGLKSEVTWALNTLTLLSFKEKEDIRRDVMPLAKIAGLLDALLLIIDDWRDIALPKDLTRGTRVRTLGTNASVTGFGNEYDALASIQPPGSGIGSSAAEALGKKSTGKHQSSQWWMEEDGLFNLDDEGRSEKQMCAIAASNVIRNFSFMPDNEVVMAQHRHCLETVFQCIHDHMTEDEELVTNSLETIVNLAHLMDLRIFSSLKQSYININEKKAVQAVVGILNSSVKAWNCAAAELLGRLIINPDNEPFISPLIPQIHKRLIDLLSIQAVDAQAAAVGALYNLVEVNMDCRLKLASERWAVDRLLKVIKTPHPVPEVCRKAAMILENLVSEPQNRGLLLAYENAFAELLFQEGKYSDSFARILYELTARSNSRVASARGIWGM

[3] = biological target: T3, SANT domain of SWI3B fused with BD (Arabidopsis thaliana) (UniProt Q84JG2); test: two-hybrid; directed test in yeast AH109; bait pGBKT7, prey pGADT7; growth on SD/-L-W-A-H; liquid β-galactosidase assay with ONPG
T3 sequence: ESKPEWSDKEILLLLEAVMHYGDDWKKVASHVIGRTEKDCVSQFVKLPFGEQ

[4] = biological target: T4, SWI3B, full length, fused with BD (Arabidopsis thaliana) (UniProt Q84JG2); test: as above
T4 sequence: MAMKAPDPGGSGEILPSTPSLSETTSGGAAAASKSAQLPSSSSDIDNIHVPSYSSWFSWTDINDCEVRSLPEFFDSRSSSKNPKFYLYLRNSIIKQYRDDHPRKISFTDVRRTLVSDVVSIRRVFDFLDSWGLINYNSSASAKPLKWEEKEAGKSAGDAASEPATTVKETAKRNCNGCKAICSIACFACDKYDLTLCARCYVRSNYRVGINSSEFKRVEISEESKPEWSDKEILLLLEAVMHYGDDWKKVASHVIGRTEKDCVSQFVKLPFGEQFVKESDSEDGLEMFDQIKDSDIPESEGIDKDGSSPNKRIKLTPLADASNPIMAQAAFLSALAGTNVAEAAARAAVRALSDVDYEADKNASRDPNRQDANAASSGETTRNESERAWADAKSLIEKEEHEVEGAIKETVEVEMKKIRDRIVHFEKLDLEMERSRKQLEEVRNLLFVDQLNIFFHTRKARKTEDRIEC

[5] = biological target: T5, SWIRM domain of SWI3B fused with BD (Arabidopsis thaliana) (UniProt Q84JG2); test: as above
T5 sequence: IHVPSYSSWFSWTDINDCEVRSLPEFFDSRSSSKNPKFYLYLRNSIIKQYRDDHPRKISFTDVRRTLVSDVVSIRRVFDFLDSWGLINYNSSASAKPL

[6] = biological target: T6, SWI3B-3FLAG (Arabidopsis thaliana) (UniProt Q84JG2); test: co-IP; total protein extracts of Arabidopsis transgenic rescue seedlings; anti-FLAG M2 agarose beads, 1 h at 4°C; 50 mM Na2HPO4/NaH2PO4 pH 7.4, 150 mM NaCl, Triton X-100; blot with anti-SWI3B or anti-LFR; Col-0 as control
T6 sequence: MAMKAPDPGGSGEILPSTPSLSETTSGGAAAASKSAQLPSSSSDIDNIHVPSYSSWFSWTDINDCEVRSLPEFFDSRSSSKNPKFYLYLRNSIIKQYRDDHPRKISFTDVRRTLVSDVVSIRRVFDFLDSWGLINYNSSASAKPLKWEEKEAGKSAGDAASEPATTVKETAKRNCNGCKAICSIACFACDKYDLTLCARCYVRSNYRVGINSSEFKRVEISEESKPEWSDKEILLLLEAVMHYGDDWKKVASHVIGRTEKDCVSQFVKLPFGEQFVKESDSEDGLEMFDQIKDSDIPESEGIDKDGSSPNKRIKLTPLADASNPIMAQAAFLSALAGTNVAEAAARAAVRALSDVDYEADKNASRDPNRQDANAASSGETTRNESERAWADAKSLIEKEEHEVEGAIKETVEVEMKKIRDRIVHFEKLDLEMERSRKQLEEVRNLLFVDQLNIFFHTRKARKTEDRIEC

B1: SWI3D fused with AD (protein, UniProt Q8VY05 1-985)
chain: MEEKRRDSAGTLAFAGSSGDSPASEPMPAPRRRGGGLKRKANALGGSNFFSSAPSKRMLTREKAMLASFSPVHNGPLTRARQAPSIMPSAADGVKSEVLNVAVGADGEKPKEEEERNKAIREWEALEAKIEADFEAIRSRDSNVHVVPNHCGWFSWEKIHPLEERSLPSFFNGKLEGRTSEVYREIRNWIMGKFHSNPNIQIELKDLTELEVGDSEAKQEVMEFLDYWGLINFHPFPPTDTGSTASDHDDLGDKESLLNSLYRFQVDEACPPLVHKPRFTAQATPSGLFPDPMAADELLKQEGPAVEYHCNSCSADCSRKRYHCPKQADFDLCTECFNSGKFSSDMSSSDFILMEPAEAPGVGSGKWTDQETLLLLEALEIFKENWNEIAEHVATKTKAQCMLHFLQMPIEDAFLDQIDYKDPISKDTTDLAVSKDDNSVLKDAPEEAENKKRVDEDETMKEVPEPEDGNEEKVSQESSKPGDASEETNEMEAEQKTPKLETAIEERCKDEADENIALKALTEAFEDVGHSSTPEASFSFADLGNPVMGLAAFLVRLAGSDVATASARASIKSLHSNSGMLLATRHCYILEDPPDNKKDPTKSKSCSADAEGNDDNSHKDDQPEEKSKKAEEVSLNSDDREMPDTDTGKETQDSVSEEKQPGSRTENSTTKLDAVQEKRSSKPVTTDNSEKPVDIICPSQDKCSGKELQEPLKDGNKLSSENKDASQSTVSQSAADASQPEASRDVEMKDTLQSEKDPEDVVKTVGEKVQLAKEEGANDVLSTPDKSVSQQPIGSASAPENGTAGGNPNIEGKKEKDICEGTKDKYNIEKLKRAAISAISAAAVKAKNLAKQEEDQIRQLSGSLIEKQLHKLEAKLSIFNEAESLTMRVREQLERSRQRLYHERAQIIAARLGVPPSMSSKASLPTNRIAANFANVAQRPPMGMAFPRPPMPRPPGFPVPGSFVAATTMTGSSDPSPGSDNVSSV
- binding [1]: no binding

B3: Leaf and Flower Related (LFR), full length, fused with AD (protein, UniProt Q9LS90 1-460)
chain: MQKRELGKSGGNSGGSSGPPAKRGRPFGSTSANSAAAAAAAAAADAMSPSALLGPSLLVHNSFVEQNNRRIVLALQSGLKSEVTWALNTLTLLSFKEKEDIRRDVMPLAKIAGLLDALLLIIDDWRDIALPKDLTRGTRVRTLGTNASVTGFGNEYDALASIQPPGSGIGSSAAEALGKKSTGKHQSSQWWMEEDGLFNLDDEGRSEKQMCAIAASNVIRNFSFMPDNEVVMAQHRHCLETVFQCIHDHMTEDEELVTNSLETIVNLAHLMDLRIFSSLKQSYININEKKAVQAVVGILNSSVKAWNCAAAELLGRLIINPDNEPFISPLIPQIHKRLIDLLSIQAVDAQAAAVGALYNLVEVNMDCRLKLASERWAVDRLLKVIKTPHPVPEVCRKAAMILENLVSEPQNRGLLLAYENAFAELLFQEGKYSDSFARILYELTARSNSRVASARGIWGM
- binding [3]: binds
- binding [4]: binds
- binding [5]: binds

B5: SWI3C fused with AD (protein, UniProt Q9XI07 1-807)
chain: MPASEDRRGKWKRKKRGGLSAARKPKQEEEDMEEEDEENNNNNNEEMDDVENADELQQNGGATPDPGLGIGEVVEDSGSRISDFPAVVKRVVIRPHASVMAVVAAERAGLIGETRGQGSLPALENISFGQLQALSTVPADSLDLERSDGSSSAYVISPPPIMDGEGVVKRFGDLVHVLPMHSDWFAPNTVDRLERQVVPQFFSGKSPNHTPESYMEFRNAIVSKYVENPEKTLTISDCQGLVDGVDIEDFARVFRFLDHWGIINYCATAQSHPGPLRDVSDVREDTNGEVNVPSAALTSIDSLIKFDKPNCRHKGGEVYSSLPSLDGDSPDLDIRIREHLCDSHCNHCSRPLPTVYFQSQKKGDILLCCDCFHHGRFVVGHSCLDFVRVDPMKFYGDQDGDNWTDQETLLLLEAVELYNENWVQIADHVGSKSKAQCILHFLRLPVEDGLLDNVEVSGVTNTENPTNGYDHKGTDSNGDLPGYSEQGSDTEIKLPFVKSPNPVMALVAFLASAVGPRVAASCAHESLSVLSEDDRMKSEGMQGKEASLLDGENQQQDGAHKTSSQNGAEAQTPLPQDKVMAAFRAGLSAAATKAKLFADHEEREIQRLSANIVNHQLKRMELKLKQFAEIETLLMKECEQVEKTRQRFSAERARMLSARFGSPGGISPQTNNLQGMSLSTGGNNINSLMHQQHQQQQASATSQPSIIPGFSNNPQVQAQMHFMARQQQQQQQQQQQQQQAFSFGPRLPLNAIQTNAGSTASPNVMFGNNQLNNPAAAGAASINQPSFSHPMVRSSTGSGSGSGLGLN
- binding [1]: no binding

Now from value to binder:

- binding [2]: binds
B2: nYFP-AS2 (… LEAVES2) (protein, UniProt O04479 1-199)
chain: MASSSTNSPCAACKFLRRKCQPECVFAPYFPPDQPQKFANVHKVFGASNVTKLLNELHPSQREDAVNSLAYEADMRLRDPVYGCVGVISLLQHQLRQLQIDLSCAKSELSKYQSLGILAATHQSLGINLLAGAADGTATAVRDHYHHHQFFPREQMFGGLDVPAGNNYDGGILAIGQITQFQQPRAAAGDDGRRTVDPS

- binding [6]: binds
B4: endogenous LFR (protein, UniProt Q9LS90 1-460)
chain: MQKRELGKSGGNSGGSSGPPAKRGRPFGSTSANSAAAAAAAAAADAMSPSALLGPSLLVHNSFVEQNNRRIVLALQSGLKSEVTWALNTLTLLSFKEKEDIRRDVMPLAKIAGLLDALLLIIDDWRDIALPKDLTRGTRVRTLGTNASVTGFGNEYDALASIQPPGSGIGSSAAEALGKKSTGKHQSSQWWMEEDGLFNLDDEGRSEKQMCAIAASNVIRNFSFMPDNEVVMAQHRHCLETVFQCIHDHMTEDEELVTNSLETIVNLAHLMDLRIFSSLKQSYININEKKAVQAVVGILNSSVKAWNCAAAELLGRLIINPDNEPFISPLIPQIHKRLIDLLSIQAVDAQAAAVGALYNLVEVNMDCRLKLASERWAVDRLLKVIKTPHPVPEVCRKAAMILENLVSEPQNRGLLLAYENAFAELLFQEGKYSDSFARILYELTARSNSRVASARGIWGM

From PMC8385146
